The source of these data is paper PMC9630114.

Protein sequences, listed by entry. Tags and fused reporters are not part of them. Residues count along the entry.
UniProt Q9BUV8: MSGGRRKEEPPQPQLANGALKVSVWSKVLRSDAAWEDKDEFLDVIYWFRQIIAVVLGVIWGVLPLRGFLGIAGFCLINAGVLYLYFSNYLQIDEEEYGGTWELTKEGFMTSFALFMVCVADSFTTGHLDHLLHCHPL
UniProt Q9BVK8: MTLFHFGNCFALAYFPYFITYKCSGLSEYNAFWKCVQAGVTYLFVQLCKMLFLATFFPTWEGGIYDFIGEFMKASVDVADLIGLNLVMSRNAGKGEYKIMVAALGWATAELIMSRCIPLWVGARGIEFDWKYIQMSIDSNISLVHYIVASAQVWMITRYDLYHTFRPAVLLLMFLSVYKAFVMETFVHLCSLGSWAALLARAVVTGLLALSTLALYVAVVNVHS
UniProt Q969V3, residues 43-563: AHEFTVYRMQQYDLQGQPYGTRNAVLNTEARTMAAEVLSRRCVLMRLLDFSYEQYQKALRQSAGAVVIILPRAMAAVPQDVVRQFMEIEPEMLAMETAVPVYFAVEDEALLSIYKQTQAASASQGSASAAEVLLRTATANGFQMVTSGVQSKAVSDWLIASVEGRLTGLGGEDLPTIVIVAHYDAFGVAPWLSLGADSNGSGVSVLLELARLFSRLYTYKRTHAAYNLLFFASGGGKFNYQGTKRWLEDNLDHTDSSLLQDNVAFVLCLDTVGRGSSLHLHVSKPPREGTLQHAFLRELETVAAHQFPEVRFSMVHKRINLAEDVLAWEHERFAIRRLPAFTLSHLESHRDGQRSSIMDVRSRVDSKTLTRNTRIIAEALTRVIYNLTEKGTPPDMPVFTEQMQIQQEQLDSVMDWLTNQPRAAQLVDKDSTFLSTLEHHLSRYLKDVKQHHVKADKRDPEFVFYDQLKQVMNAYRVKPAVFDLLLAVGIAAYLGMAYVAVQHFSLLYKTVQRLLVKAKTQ

These are yes or no findings as the source states them, for the method shown. Binding seen in cells or lysates may run through a third protein. Some binding calls cover weakened binding; strength is not graded here. Sequences can lack the tags named with a protein.

Experiment [1] deals with T1, stalled, Flag-tagged YIPF1 construct truncated at position 183 (UniProt Q9Y548).
T1 sequence: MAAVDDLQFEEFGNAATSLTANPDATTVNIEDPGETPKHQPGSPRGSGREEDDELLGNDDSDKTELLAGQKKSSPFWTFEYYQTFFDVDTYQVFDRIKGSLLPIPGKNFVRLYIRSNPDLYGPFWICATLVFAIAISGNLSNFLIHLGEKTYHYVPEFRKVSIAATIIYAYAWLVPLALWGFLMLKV
The experiment can be described thus: co-IP; stalled N-terminally Flag-tagged nascent chains translated in RRL with HEK293 rough microsomes (wild type; in some panels ΔTN, ΔTC, ΔS or single knockouts), membranes nuclease-treated and digitonin-solubilized, anti-Flag immunoprecipitation, Flag-peptide elution, ribosome-nascent chain complexes pelleted through a sucrose cushion; immunoblot.

For experiment [2], the target named is T2, stalled, Flag-tagged YIPF1 construct truncated at position 277 (UniProt Q9Y548).
T2 sequence: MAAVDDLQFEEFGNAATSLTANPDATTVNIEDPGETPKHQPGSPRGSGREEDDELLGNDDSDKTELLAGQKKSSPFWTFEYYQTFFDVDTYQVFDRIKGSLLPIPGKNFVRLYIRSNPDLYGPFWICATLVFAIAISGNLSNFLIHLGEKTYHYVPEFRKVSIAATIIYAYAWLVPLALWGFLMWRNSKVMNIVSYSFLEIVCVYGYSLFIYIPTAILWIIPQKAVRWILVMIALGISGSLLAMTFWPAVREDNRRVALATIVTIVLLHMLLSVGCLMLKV
The description is as above.

Experiment [3] deals with T3, N-terminally Flag-tagged CCDC47 (UniProt Q96A33).
T3 sequence: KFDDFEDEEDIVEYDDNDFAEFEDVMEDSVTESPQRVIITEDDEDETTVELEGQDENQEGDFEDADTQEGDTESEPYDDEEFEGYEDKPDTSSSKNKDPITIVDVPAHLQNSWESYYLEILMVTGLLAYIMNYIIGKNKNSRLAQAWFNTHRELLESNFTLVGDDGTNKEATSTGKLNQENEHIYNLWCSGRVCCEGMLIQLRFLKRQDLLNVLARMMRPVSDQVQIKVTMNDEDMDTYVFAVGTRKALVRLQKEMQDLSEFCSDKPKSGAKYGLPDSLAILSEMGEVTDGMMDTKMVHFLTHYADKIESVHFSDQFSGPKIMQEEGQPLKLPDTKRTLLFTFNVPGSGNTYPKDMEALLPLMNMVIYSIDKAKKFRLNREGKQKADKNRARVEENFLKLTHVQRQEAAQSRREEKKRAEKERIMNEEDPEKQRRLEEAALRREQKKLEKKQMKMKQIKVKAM
The experiment is described as follows: co-IP; anti-Flag (M2 beads) immunoprecipitation from nuclease-treated, digitonin-solubilized HEK293 microsomes, overnight at 4 °C, Flag-peptide elution, eluate pelleted through a sucrose cushion; ribosome-bound fraction (pellet); immunoblot. Background: In western blotting, separated proteins are transferred to a membrane and probed.

Consider C20Orf24 (from UniProt Q9BUV8 1-137), for which the binding entry in experiment [1] is “no binding”; in experiment [2] it was “binds”.

In the case of TMEM147 (from UniProt Q9BVK8 1-224), the figures for the binding result in experiment [1] and in experiment [2] were “no binding” and “binds”, respectively.

With nicalin (from UniProt Q969V3 43-563), the binding entry was “no binding” in experiment [1] and “binds” in experiment [2].

B1: Asterix (protein, UniProt Q9Y284 1-106)
chain: MSTNNMSDPRRPNKVLRYKPPPSECNPALDDPTPDYMNLLGMIFSMCGLMLKLKWCAWVAVYCSFISFANSRSSEDTKQMMSSFMLSISAVVMSYLQNPQPMTPPW
Turning to B1, the figures for the binding result in experiment [3], in experiment [1] and in experiment [2] were “binds”, “no binding” and “binds”, respectively.
